For 40 sequences, antibody binding signal results are on record in the supplement of paper PMC10441789.

Some of the results follow. Antibody binding of pooled human sera (four to six donors per pool; dilution not stated) to peptides of the Trypanosoma cruzi antigen TSSA on microarrays. Quantile-normalised fluorescence in arbitrary units, mean of duplicate arrays; higher = more binding. No active / inactive call. The uninfected pools are read here as the healthy donors of the same country. The strongest signals lie near the top of the scale (about 60,000).

The assay concerns pooled sera of uninfected people, Colombia. The assay can be described thus: antibody binding signal (normalised fluorescence) (arbitrary fluorescence units); higher = stronger serum antibody binding to peptide. Here is the method:
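Microarray of 15-residue peptides over residues 30-55 of Trypanosoma cruzi TSSAII, each with 1 to 10 substitutions at naturally variable positions, probed with one serum pool per country.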
The sequence TPPSGKDNKPATGGA yielded an antibody binding signal of 211.

Regarding PPSGTENKTAAGEAP, the antibody binding signal amounted to 435.

As to TPPSGTENKAATGEA, the antibody binding signal was found to be 356. Take GKDNKAAAGGAPSPS: the antibody binding signal was found to be 172. The figure for STPPSGKDKKPAAGE is 316. The figure for KDKKTATGETPSPSG is 89.5; for GTENKTATGGTPSPP it is 672.

GTDNKTATGGTPSQP: the antibody binding signal amounted to 189. On to PSGTDKKPATGETPS, for which the antibody binding signal worked out at 712.

As for SGKDKKTATGGAPSP, the antibody binding signal is 138.

The sequence STPPSGKDNKPAAGE had an antibody binding signal of 282. Sequence GTDNKAAAGGTPSQS showed an antibody binding signal of 268. TDNKPAAGETPSQSG showed an antibody binding signal of 176.

GTDKKPAAGGTPSPP displayed an antibody binding signal of 326.

TPPSGKDNKTAAGET yielded an antibody binding signal of 299. With KENKPATGEAPSPSG the figure was 205; with ENKAATGEAPSQSGA, 139.

Turning to GKDNKAAAGETPSQS, the antibody binding signal was 225.

In the case of SGTDKKPAAGEAPSQ, the antibody binding signal was determined as 353.

Consider KEKKPATGGAPSQSG, for which the antibody binding signal turned out to be 139. The figure for SGKDNKPAAGEAPSQ is 585; for DKKTAAGGAPSPSGA it is 223; for PPSGKDNKAATGGTP it is 166.

The sequence GKDKKTAAGETPSQS had an antibody binding signal of 156. With GKEKKPATGETPSQS the figure was 110; with SGTDNKPAAGEAPSQ, 209; with TISTPPSGTENKAAA, 1240.

Sequence KENKAATGGTPSQPG displayed an antibody binding signal of 178. With GKDNKTATGGTPSQS the figure was 167; with ENKPAAGGTPSQPGA, 585. With STPPSGKDNKPATGE the figure was 251; with GKEKKAAAGETPSQS, 115; with GKDKKPATGEAPSPS, 181. The figure for TDKKTAAGETPSQSG is 901. As to GKENKPAAGETPSQS, the antibody binding signal was 239. In turn, GKENKPAAGGAPSQP came in with an antibody binding signal of 119. With NKTATGGTPSPSGAS the figure was 968; with SGTEKKTATGGTPSP, 1180. The figure for NKTATGGAPSQPGAS is 391; for GTEKKTATGGAPSPP it is 110.
